ChEMBL document CHEMBL4888484, “Replenishing the malaria drug discovery pipeline: Screening and hit evaluation of the MMV Hit Generation Library 1 (HGL1) against asexual blood stage Plasmodium falciparum ,using a nano luciferase reporter read-out” (2022)
The whole screen tested about 150,000 compounds, of which about 540 (0.36%) showed an effect of 50% or more. Some of the results follow.

These molecules were tested on Plasmodium falciparum (assay: Primary screen in NF54 nanoGlo assay, in single point, at 2uM, 72h; a lower Z score goes with more inhibition). Details: timepoint 72 hour.
Format: functional, Erythrocyte

SMILES | % Inhibition [%] | Z score
CCn1cc(S(=O)(=O)N[C@@](C)(CC)c2nc(C)cs2)cn1 | -13 | 2.64
c1ccc([C@@H]2CN(c3ncnc4ccccc34)CCO2)cc1 | -13 | 1.66
COc1ccc(CN2CCNC(=O)[C@@H]2CC(=O)NCCc2ccc(Cl)cc2)cc1OC | -16 | 2.26
O=C(Cn1cncn1)NCCCc1ccc(Br)cc1F | -4 | 0.62
Cc1cc(C)cc(C(=O)N2CCC([C@]3(CCC(C)C)NC(=O)N(CCN(C)C)C3=O)CC2)c1 | -16 | 2.06
Cn1nc(C(=O)N2CCOCC2)cc1C(=O)Nc1ccc(F)c(F)c1 | -14 | 1.59
Cc1noc(COC(=O)C2(c3cccc(Cl)c3)CCCCC2)n1 | -12 | 1.36
Cc1nn(-c2ccccc2)c2nc(C3CCOCC3)nc(N3CCN(C(=O)Cc4cccs4)CC3)c12 | 3 | -0.45
COc1ccc(C)cc1NC(=O)C(=O)NCC(=O)N1CCO[C@H](c2ccccc2)C1 | -10 | 1.46
CCCN(CCO)C(=O)Nc1ccccc1N(C)C | 10 | -1.46
COc1ccc(C(=O)N2CCC3(CC2)[C@H](O)C[C@@H]3OC)cc1C | 2 | -0.26
CN(CCC(=O)Nc1ccccc1C#N)Cc1nccn1C(F)F | -5 | 0.79
O=C(C1CC(=O)N(c2ccc(F)cc2)C1)N1CCCCC(c2ccc(F)cc2)C1 (configuration not stated) | -15 | 2.37
O=C(COc1cccc2cccnc12)NC(C1CC1)C1CC1 | 34 | -3.82
COCCN(CC(C)C)C(=O)Cc1ccn(C(C)C)n1 | -8 | 0.76
CC(C)CCN(CCC#N)Cc1cc(=O)n2nccc2[nH]1 | -4 | 0.62
Cn1nccc1CCNC(=O)Nc1cccnn1 | -5 | 0.74
c1ccc(Nc2cnc3ccccc3c2)nc1 | -9 | 1.27
O=C1NCC[C@@H]1Nc1ccc(Oc2ncc(Cl)cn2)c(Cl)c1 | 5 | -0.6
O=C(Nc1ccncc1F)c1ccoc1 | -2 | 0.15
CCc1nnc(N2CCC(c3nc(C)no3)CC2)n1C[C@H]1CCCCO1 | -9 | 1.05
CCOc1ncccc1C(=O)Nc1cccc(S(=O)(=O)N2CCCCC2)c1 | -15 | 2.28

SMILES | % Inhibition [%] | Z score
COc1ncccc1COc1nnc(-c2ccccc2)o1 | -3 | 0.63
O=C1CN(Cc2ccn(C3CCCC3)n2)C2CCCCC2N1 (configuration not stated) | -7 | 0.83
COc1ncnc2c1CN(C(=O)c1cc3c(s1)CC[C@H](C)C3)CC2 | 38 | -4.93
O=C(Nc1nc2ccccc2n1C1CCCC1)c1ccon1 | -12 | 1.47
O=S(=O)(c1ccc(-c2ccn[nH]2)s1)N1CCc2ccccc2C1 | 4 | -0.74
C#CCNC(=O)c1ccc(NCCn2c(C)nc3ccccc32)nc1 | 1 | -0.1
Cc1oc2ncn(C)c(=O)c2c1C(=O)N1CCCCC1 | 1 | -0.09
O=C(CN1CCOC1=O)N1CC[C@H](Oc2cc(C(F)(F)F)ccn2)C1 | -7 | 1.4
CC(C#N)CNC1CCC2(CC1)CC2NC(=O)OC(C)(C)C (configuration not stated) | 14 | -1.9
CCCCS(=O)(=O)N1CCCCC1 | -6 | 0.61
Cn1ncc(Oc2ccc3c(c2)OCO3)c(Nc2cccc(C(=O)NC3CC3)c2)c1=O | -20 | 1.76
CC1(C(=O)NCc2nc3cc(C(C)(C)C)ccc3o2)COC1 | 8 | -1.01
CCc1csc(CNC(=O)c2ccc(OCC(=O)N3CCCCC3)cc2)n1 | -22 | 2.21
CN(C)[C@@H]1C[C@@H](CO)N(Cc2cnc3c(-c4ccccc4)cnn3c2)C1 | 4 | -0.81
COc1ccc(N2C(=O)[C@H]3[C@@H](C2=O)[C@]2(C(=O)Nc4c2ccc(C)c4C)N2CCC[C@@H]32)cc1 | 1 | -0.18
Cc1cccc(-n2nc(C)c3sc(N(C)CC(=O)N4CCOCC4)nc32)c1 | -7 | 0.94
O=C(CN1CCN(C(=O)Nc2ccc(F)cc2)CC1=O)N1CCC(Cc2ccccc2)CC1 | -6 | 1.11
Cc1nnc(NC(=O)c2ccc(N3CCCS3(=O)=O)cc2C)s1 | -8 | 0.76
O=C(CCCc1ccccn1)Nc1cc(C2CC2)nn1[C@H]1CCS(=O)(=O)C1 | -1 | 0.14
COCCC[C@H]1CCCN(Cc2cc3cc(F)ccc3n2C)C1 | -9 | 1.62
O=C(N1CCc2nccnc2C1)C1(C2CC2)CCC1 | -2 | 0.26
C[C@H](NC(=O)c1ccc(F)c(Br)c1)C(=O)N(C)C | -4 | 0.75

SMILES | % Inhibition [%] | Z score
CC1CCN(c2cc(-n3cnc(C(=O)NC4CCCC4)c3)ncn2)CC1 | -16 | 1.74
CC(=O)N1CCN(C(=O)Cn2c(=O)n(-c3ccc(C)c(Cl)c3)c(=O)c3ccccc32)CC1 | -6 | 0.6
COc1cc(F)c(NC(=O)c2cc(-c3ccccc3)ccc2Cl)cc1OC | -4 | 0.39
CCCCN(CCO)C(=O)Nc1cnn(CC)c1 | -8 | 0.74
O=C1CCC(NC(=O)c2ccc(NCC3CC3)nc2)C(C2CC2)N1 (configuration not stated) | -4 | 0.65
COc1ccc(C(=O)NC(C)(C)c2c(C)noc2C)cn1 | -5 | 0.59
COc1ccccc1CC(=O)NC[C@H](O)c1ccc2ccccc2c1 | 1 | -0.2
CN(C)CCNC(=O)Nc1ccn(-c2ncccc2Cl)n1 | 30 | -0.62
C=CCCC(=O)NCc1cn(-c2ccncc2)nn1 | 9 | -1.2
CN(C)C(=O)CNc1cccc(Cl)c1 | -6 | 0.85
Cc1nc([C@H](C)n2ccnc2-c2c[nH]cn2)cs1 | -1 | 0.11
CCCc1ncncc1C(=O)N1CCC[C@H](c2nccn2CC)C1 | -17 | 3.11
O=C(CC1CCCC1)Nc1ncccc1O | -5 | 0.78
Cc1nnsc1C(=O)N1C2C=CCC1CC2 (configuration not stated) | -10 | 1.68
CC(C)(NC(=O)NCc1cccnc1)c1ccc2c(c1)OCO2 | -9 | 1.19
CC[C@](C)(NC(=O)C(=O)Nc1cc(C)c(F)cc1C)c1nccs1 | 22 | -3.13
Cc1ccc(O[C@H]2CCc3ccccc32)nn1 | -2 | 0.22
COc1cc2ccc3c(CCN(C)C(=O)[C@H]4CCOC(C)(C)C4)cc(OC)c(OC)c3c2cc1OC | 12 | -1.94
CCOCCCN(CC(=O)N(Cc1ccc(F)cc1)Cc1ccc(C)o1)C(=O)Nc1ccccc1C(F)(F)F | -7 | 1.01
CCc1nn(-c2ccccc2)c(Oc2ccccc2OC)c1CN(CCOC)C(=O)c1ccccc1 | -17 | 1.61
C=CCC(CN1CCOCC1c1noc(C)n1)c1ccccc1 (configuration not stated) | 3 | -0.66
O=C(COc1cccnc1)N1CC(S(=O)(=O)Nc2ccccc2)C1 | 3 | -0.44

SMILES | % Inhibition [%] | Z score
COc1ccc([C@H]2CC(=O)Nc3nc(N)sc32)cc1OCc1ccc(Cl)cc1 | -10 | 1.32
O=C1c2ccccc2N[C@H](c2ccco2)N1c1ccc2c(c1)OCO2 | -34 | 3.97
Cc1cnc(C(=O)N2CCOC[C@H]2c2ccnn2C)c(C)c1 | 0 | 0.03
Cc1ncc(CN(C)CCC2(O)CCCC2)n1C | -12 | 1.26
CN(C)S(=O)(=O)c1ccc2c(c1)nnn2CCCC(=O)Nc1cccnc1 | 14 | -1.91
Cc1cc(C)c(NS(=O)(=O)c2ccc(-c3ccn[nH]3)s2)c(C)c1 | 7 | -1.41
Cc1n[nH]cc1CNC[C@H]1COc2ccccc2O1 | -6 | 0.88
FC(F)(F)c1cnc(O[C@H]2CCNC2)c(Cl)c1 | 1 | -0.15
Cn1cc(CN2CCC(C(=O)NCCN3CCOCC3)CC2)c2cc(Cl)ccc21 | 15 | -1.95
CC(C)n1nccc1C=Cc1cccnn1 | -5 | 0.77
CCn1cnnc1Cn1c(=O)n(C2CCCCC2)c2ncc(C(=O)OC)cc21 | -1 | 0.12
CCOCCC(=O)N[C@H](c1nc(C)cs1)C1CC1 | -6 | 0.65
COC(=O)CC1(NC(=O)Nc2ccc(C(=O)N3CCCC[C@@H]3C)cc2)CCCCC1 | -11 | 1.87
C[C@]1(C(=O)NCc2nc(-c3ccco3)n[nH]2)CC1(Cl)Cl | -11 | 1.58
COCC(=O)N[C@@H]1CC[C@H]2CCOc3ccccc3C(=O)N3CCN(C(C)C)C[C@H]3C(=O)NC[C@H]1O2 | -5 | 0.64
CCC(C)NC(=O)C1Cc2ccc(OC)cc2N2CCN(c3ccccc3OC)CC12 (configuration not stated) | -10 | 1.33
Fc1cncc(-c2nc(-c3ccncc3)no2)c1 | -12 | 1.39
Nc1nc(CCC(=O)N2C[C@@H]3CC[C@H]2CN(Cc2ccccc2)C3)cs1 | -5 | 0.95
CCNC(=O)[C@H](C)NC(=O)CCCC(=O)c1c(C)cc(C)cc1C | 3 | -0.33
CC[C@H](OC)C(=O)NS(=O)(=O)c1ccc(NC(C)=O)cc1 | -1 | 0.11
